Data taken from paper PMC4336329 (PLoS ONE, 2015).
Among all 310,000 compounds or so, about 2,200 (0.71%) showed an effect of 50% or more. The effect is printed as a negative number. The list shows a part of the results.

What follows are compounds tested against human ether-à-go-go-related gene (hERG) potassium channel (human, UniProt Q12809) (assay: primary screen, population patch clamp on CHO cells stably expressing hERG).
Chain of human ether-à-go-go-related gene (hERG) potassium channel (Q12809 whole entry, looked up): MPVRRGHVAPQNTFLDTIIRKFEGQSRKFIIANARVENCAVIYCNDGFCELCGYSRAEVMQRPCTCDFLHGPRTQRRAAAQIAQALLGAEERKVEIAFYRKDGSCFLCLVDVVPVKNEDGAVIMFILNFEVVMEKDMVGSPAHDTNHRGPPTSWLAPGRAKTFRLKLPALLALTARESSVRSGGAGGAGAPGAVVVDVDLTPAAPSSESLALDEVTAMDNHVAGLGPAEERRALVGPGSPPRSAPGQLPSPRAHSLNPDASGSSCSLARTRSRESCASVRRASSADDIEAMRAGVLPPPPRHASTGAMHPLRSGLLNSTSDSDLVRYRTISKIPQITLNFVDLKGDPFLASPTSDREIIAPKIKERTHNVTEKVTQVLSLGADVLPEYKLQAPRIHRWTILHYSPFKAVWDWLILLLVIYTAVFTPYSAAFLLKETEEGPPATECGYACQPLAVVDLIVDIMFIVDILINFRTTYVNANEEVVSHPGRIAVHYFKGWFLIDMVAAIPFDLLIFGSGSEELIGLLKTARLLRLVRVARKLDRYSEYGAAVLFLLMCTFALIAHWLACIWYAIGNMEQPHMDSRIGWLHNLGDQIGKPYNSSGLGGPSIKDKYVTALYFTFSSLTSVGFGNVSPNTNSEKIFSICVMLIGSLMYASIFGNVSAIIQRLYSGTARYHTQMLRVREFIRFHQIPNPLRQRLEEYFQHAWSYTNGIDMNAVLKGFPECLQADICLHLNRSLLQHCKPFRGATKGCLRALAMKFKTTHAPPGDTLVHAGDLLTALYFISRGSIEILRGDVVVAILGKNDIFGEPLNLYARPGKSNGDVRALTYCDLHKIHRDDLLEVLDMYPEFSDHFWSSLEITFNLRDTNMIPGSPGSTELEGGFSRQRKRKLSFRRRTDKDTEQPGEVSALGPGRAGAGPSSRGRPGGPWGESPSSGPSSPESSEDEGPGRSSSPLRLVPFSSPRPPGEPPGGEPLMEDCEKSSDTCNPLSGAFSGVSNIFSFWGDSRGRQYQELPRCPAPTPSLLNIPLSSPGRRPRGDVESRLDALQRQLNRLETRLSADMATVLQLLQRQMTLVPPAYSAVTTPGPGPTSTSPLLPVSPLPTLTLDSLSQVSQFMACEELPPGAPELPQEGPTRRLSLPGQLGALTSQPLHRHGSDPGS

Compound	hERG current change (%, negative = inhibition) at 1uM
CCOc1ccc(C2C(C#N)=C(N)Oc3cc(C)oc(=O)c32)cc1 (stereo not drawn)	14.5%
O=C(NNC1=NCCC1)C1CC1	12.6%
COc1ccc(Cl)cc1NC(=S)NCc1cccnc1	7.74%
CC12CCC(C(=O)O)(c3nc(C#N)c(C#N)nc31)C2(C)C (stereo not drawn)	14%
COc1ccc(-c2cn(Cc3ccc([N+](=O)[O-])cc3)nn2)cc1	6.38%
CCCCOc1ccc(OCCCC)c2c1NC1(N2)C(=O)N(C(C)=O)c2ccccc21	12%
O=C(CC(C(=O)N1CCc2ccccc21)n1ccnc1)NCc1cccnc1 (stereo not drawn)	2.65%
Cc1ccc2oc(=O)c(/C=C(\O)c3sc(C)nc3C)nc2c1	3.15%
CCN(C(=O)CSc1nnc(-c2cccs2)n1CC)C1CCS(=O)(=O)C1 (stereo not drawn)	10.7%
CCC(=O)c1ccc(OCC(=O)NCCC2=CCCCC2)c(OC)c1	2.5%
COc1cc(NS(=O)(=O)c2cc(C(=O)N3CCN(C(C)=O)CC3)ccc2OC)cc(OC)c1	4.27%
CCCCNC(=O)CNC(=O)c1nn(-c2ccc(OC)cc2OC)c(=O)c2ccccc12	12.2%
c1ccc2c(c1)CC(CN1CCNCC1)O2 (stereo not drawn)	-14.3%
COc1ccccc1-c1cc(C(F)(F)F)nc(S(=O)(=O)CCCC(=O)Nc2cc(C)on2)n1	-6.01%
N#Cc1ccccc1	13.4%
Cc1nc2ccccc2nc1OCC(=O)Nc1cc(C(F)(F)F)ccc1N1CCOCC1	8.36%
COc1cc(C2/C(=C(\O)c3ccc4c(c3)CC(C)O4)C(=O)C(=O)N2Cc2ccco2)ccc1O (stereo not drawn)	1.35%
COc1ccc(N(C)C(=S)Nc2ccc3nc(C)c(C)nc3c2)cc1	16.1%
NC(=O)NC(CCC(=O)O)C(=O)O (stereo not drawn)	1.34%
CCc1nc2ccccc2c(C(=O)OC2CCOC2=O)c1C (stereo not drawn)	13.2%
COc1ccccc1N1CCN(C(=O)CN(CCc2ccccc2)S(C)(=O)=O)CC1	5.29%
CC(=O)OCCOc1nc(NC(C)C)nc(NC(C)C)n1	9.65%
COc1ccc(N(CC(=O)NCc2ccco2)S(C)(=O)=O)cc1Cl	2.15%

Compound	hERG current change (%, negative = inhibition) at 1uM
COc1ccc(N2CCN(C(CNC(=O)c3ccc4c(c3)OCO4)c3cccnc3)CC2)cc1 (stereo not drawn)	10.3%
CC1CCN(c2oc(-c3ccc(F)cc3)nc2C#N)CC1	12.5%
CCOC(=O)Nc1ccc(Oc2ccccc2)cc1	-2.01%
O=C(CS(=O)(=O)Cc1ccccc1)N1CCc2ccccc21	-7.59%
C[C@H]([C@@H](N)C(=O)N[C@@H](C(=O)O)[C@@H]1O[C@H](n2ccc(=O)[nH]c2=O)[C@@H](O)[C@H]1O)[C@@H](O)c1ccc(O)cn1	8.26%
Cc1ccc(S(=O)(=O)N(CC(=O)Nc2ccccc2-c2ccccc2)c2ccc(C)cc2C)cc1	10.7%
Cc1cc(C(=O)Nc2ncc(C)s2)c2ccccc2n1	0.468%
CCn1c(O)c(N=NC(=O)CNC(=O)c2ccco2)c2ccccc21	15.1%
O=C(CCn1c(=S)oc2ccccc21)NC1CCCCCCC1	-0.725%
COc1ccc(CCNC(=S)NCCc2c[nH]c3ccccc23)cc1	9.13%
O=C(NCc1ccccc1C(F)(F)F)C1CCC(=O)N(C2CC2)C1 (stereo not drawn)	4.82%
O=C(Nc1ccc2snnc2c1)Nc1cccc2ccccc12	7.89%
COc1ccc(/C(N)=N/OC(=O)c2ccc([N+](=O)[O-])c(C)c2)cc1OC	11.1%
CCCn1c(O)c(N=N)c2ccccc21	17.1%
O=C(Nc1ccnc(-c2ccncc2)n1)C1CC1	6.56%
CC[C@@H](CCC=C(C)C)C(=O)N(Cc1ccccc1)c1ccccc1	2.79%
O=Cc1cn(CCC(=O)O)nc1-c1cccc(Br)c1	11.6%
CCC(=O)N/N=c1/sc2ccccc2n1C	16%
COc1ccccc1C(=O)NCCC(=O)N(C)CC(=O)Nc1ccc(Cl)cc1	3.84%
Cc1cc(Br)ccc1NC(=O)c1ccccc1-c1ccccc1	36%
Cc1cc(C)c(S(=O)(=O)NCCc2cc3ccc(C)c(C)c3[nH]c2=O)c(C)c1	16.4%
C[C@H](NC(=O)C1CC(=O)N(c2ccc3c(c2)OCO3)C1)C(=O)NC1CCCC1 (stereo partly drawn)	2.67%
